# Measured values reported in PubChem BioAssay AID588855 (National Center for Advancing Translational Sciences (NCATS), 2011).
# Screen size: about 410,000 compounds; about 5,000 (1.2%) were called active. Inconclusive results, whose numbers are uncertain, are shown with a selection of clear calls. The call rests on the fitted dose curve; in most records, active means well fitted inhibition curve with a large enough effect; inconclusive means small, poorly fitted or top-dose-only effect; inactive means no such curve, though single readings can be large or run the other way. Potencies beside an inconclusive call are fits to weak or partial responses and may not hold up.
# Experiment: qHTS for Inhibitors of TGF-b; further: nearly all actives have a fitted effect of over 65% in size
# Details: HepG2 CAGA-GFP TGF-b/SMAD3 reporter, GFP fluorescence, 18 h, TGF-beta stimulated, 500 pg/mL final; series mostly up to 46.1 µM
# Method in brief: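 HEPG2 CAGA-GFP, 1000 cells/well; 2 h settle, 37 C; cpd via pin tool; TGF-b 500 pg/mL final; 18 h, 37 C; GFP imaging ex488/em500-530; %Activity normalised to -TGF-b and +DMSO controls; CRC fit, curve class.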
# Potency means the concentration at half of the fitted maximal effect; tags describe the fitted curve by direction and shape.
row,SMILES,Potency
1,COc1ccc(Nc2nc(N)c(C(=O)c3ccc(OC)cc3)s2)cc1,active: 12.6 µM
2,CC1(C(=O)Nc2ccc3c(c2)OCO3)Cc2c(-c3ccc4c(c3)OCO4)ccnc2O1 (stereo not given),inactive
3,Nn1cnc2cc3ccccc3cc2c1=O,inactive
4,CC1CC(C)CN(C(=O)COC(=O)c2ccc([N+](=O)[O-])o2)C1 (stereo not given),inactive
5,Cc1onc(-c2ccccc2)c1C(=O)NC(=S)NNC(=O)c1ccc(O)cc1,"inconclusive: 5.62 µM [inhibitor, single point]"
6,Cc1ccc(C)c(OCC(=O)Nc2ccc(N3CCOCC3)cc2N2CCOCC2)c1,inactive
7,CCOc1ccc(C(O)(c2ccccc2OC)C(CN2CCCC2)c2ccccc2)cc1 (stereo not given),"inconclusive: 8.91 µM [inhibitor, partial curve, poor fit]"
8,C=CCC[C@H](Cc1ccc(F)cc1)C(=O)OC[C@@H](Cc1c[nH]c2ccccc12)NC(=O)[C@@H](CC=C)CC(=O)NCCO,"inconclusive: 17.8 µM [inhibitor, single point]"
9,O=C(NCc1nnc(SCC(=O)N2CCCCC2)o1)c1c(F)cccc1F,"inconclusive: 35.5 µM [inhibitor, single point]"
10,COc1cc(C#Cc2c(-c3cncn3C)n(C)c3ccc(-c4cnc(OC)nc4)cc23)cc(OC)c1,"inconclusive: 25.1 µM [inhibitor, single point]"
11,O=C(Nc1ccccc1Cl)c1ccc(F)c(S(=O)(=O)NCc2ccc(Cl)c(Cl)c2)c1,"inconclusive: 22.4 µM [inhibitor, single point]"
12,COc1ccc(CN2CCCN(CC(=O)Nc3cc(C)ccc3C)S2(=O)=O)cc1,"inconclusive: 4.47 µM [inhibitor, full curve]"
13,FC(F)(F)c1nnc2c(Sc3ccc(Cl)cc3)nc3ccccc3n12,"inconclusive: 3.16 µM [inhibitor, full curve]"
14,CCC(=O)NC(NC(=S)Nc1c(C)n(C)n(-c2ccccc2)c1=O)C(Cl)(Cl)Cl (stereo not given),"inconclusive: 4.47 µM [inhibitor, single point]"
15,COc1ccc(C(=O)NNC(=O)C23CC4CC(CC(C4)C2)C3)c(OC)c1,"inconclusive: 11.2 µM [inhibitor, partial curve, poor fit]"
16,CC(C)c1ccc(NC(=S)N2CCN(S(=O)(=O)c3ccccc3)CC2)cc1,"inconclusive: 8.91 µM [inhibitor, partial curve]"
17,O[C@@H]1CN(CC2CCCCC2)[C@@H](c2ccccc2)C[C@H]1n1cc(-c2ccc(F)cc2)nn1,"inconclusive: 35.5 µM [inhibitor, single point]"
18,CCC(=O)Nc1ccccc1-c1nc2ccccc2n(Cc2cccc(Br)c2)c1=O,inactive
19,CCCCNC(=S)N(CCCO)Cc1cc2cc3c(cc2[nH]c1=O)OCCO3,inactive
20,CC(=O)c1ccc(OCc2cc(C(=O)N3CCC(Oc4ccccc4C)CC3)no2)cc1,"inconclusive: 35.5 µM [inhibitor, single point]"
21,COc1ccc(S(=O)(=O)N2CCCCC2)cc1N(C)S(=O)(=O)c1ccccc1,inactive
22,CCN(CC)CCC(=O)N1c2ccccc2CCc2ccc(NC(=O)OC)cc21,"inconclusive: 35.5 µM [inhibitor, single point]"

row,SMILES,Potency
1,Cc1sc2nc(CN3CCOCC3)[nH]c(=S)c2c1C,inactive
2,CCOc1ccc(NC(=O)c2ccc(CN3C(=O)C(C)=C(c4ccc(C)cc4)S3(=O)=O)cc2)cc1,"inconclusive: 1 µM [inhibitor, full curve, poor fit]"
3,Cn1cc(S(=O)(=O)NC[C@H]2O[C@@H](n3cnc4c(N)ncnc43)[C@H](O)[C@@H]2O)cn1,inactive
4,CC(=O)Nc1ccccc1-c1nc2ccccc2n(C(C)C(=O)Nc2cc(Cl)ccc2C)c1=O (stereo not given),"inconclusive: 14.1 µM [inhibitor, single point]"
5,CC1=C(C(=O)OC2CCCC2)C(c2ccc(C)o2)C2=C(CC(c3cccs3)CC2=O)N1 (stereo not given),"inconclusive: 14.1 µM [inhibitor, single point]"
6,C=C(Br)Cn1c(CC)nc2ccccc21,inactive
7,CN(C)C(CNc1ncnc2sc3c(c12)CCCC3)c1ccco1 (stereo not given),"inconclusive: 6.31 µM [inhibitor, single point]"
8,COc1cccc(NC(=S)N(CCCN2CCCC2)Cc2cccn2Cc2ccc(Cl)cc2)c1,"inconclusive: 28.2 µM [inhibitor, single point]"
9,O=C1c2ccccc2C(=O)N1CCCc1c[nH]c2ccc(Cl)cc12,inactive
10,O=C(Nc1ccncc1)Nc1ccc(Cl)cc1,"inconclusive: 7.94 µM [inhibitor, partial curve, poor fit]"
11,CCOC(=O)c1sc(NC(=O)c2cccc(S(=O)(=O)N3CCc4ccccc43)c2)c(C#N)c1C,"inconclusive: 2.51 µM [inhibitor, full curve, poor fit]"
12,O=C(c1ccncc1)c1ccc(N2CCN(C3CC(=O)N(Cc4ccccc4)C3=O)CC2)cc1 (stereo not given),"inconclusive: 11.2 µM [inhibitor, partial curve, poor fit]"
13,CCOC(=O)c1c(C)[nH]c(C(=O)COC(=O)c2[nH]c(C)c(C(C)=O)c2C)c1C,inactive
14,Cc1cccc(-c2nc3c(c(SCC(=O)N(C)C)n2)CCCC3)c1,"inconclusive: 3.55 µM [inhibitor, partial curve, poor fit]"
15,Cc1[nH]c2ccccc2c1SCC(=O)N1CCN(c2ccccc2)CC1,inactive
16,C/C(Cn1nnc([N+](=O)[O-])n1)=N\NC(=O)c1ccccc1Cl,"inconclusive: 35.5 µM [inhibitor, single point]"
17,COc1cccc(NC(=S)N2CCN(C/C=C/c3ccccc3)CC2)c1,inactive
18,CSc1cccc(NC(=S)NCCCN2CCN(c3ccc(F)cc3)CC2)c1,"inconclusive: 35.5 µM [inhibitor, single point]"
19,CCCCN(C)CC(O)Cn1cc(/C=C/C(=O)c2cccs2)c2ccccc21 (stereo not given),"inconclusive: 10 µM [inhibitor, single point]"
20,CCOC(=O)C1=C(COC(=O)/C=C/c2cccc(OC)c2OC)NC(=O)NC1C (stereo not given),inactive
21,COc1ccc(N2CCN(C(=O)CN=C3NS(=O)(=O)C(c4ccc(C)cc4)=C3C)CC2)cc1,"inconclusive: 10 µM [inhibitor, partial curve, poor fit]"
22,C/C(=N\NS(=O)(=O)c1ccccc1)c1cc(Cl)cc(Cl)c1O,"inconclusive: 31.6 µM [inhibitor, single point]"

row,SMILES,Potency
1,CCOC(=O)C(=O)Nc1cc([N+](=O)[O-])ccc1C,inactive
2,CCc1cc(C(c2ccc(OC)c(OC)c2)N2CCOCC2)c(NC(=O)c2ccccc2)s1 (stereo not given),"inconclusive: 20 µM [inhibitor, partial curve, poor fit]"
3,Clc1ccc(-c2ccc(CNCC3CCCO3)o2)cc1 (stereo not given),inactive
4,Cc1cc(C)c2[nH]c(=O)c(CN(Cc3ccc4c(c3)OCO4)Cc3nnnn3C3CCCC3)cc2c1,"inconclusive: 35.5 µM [inhibitor, single point]"
5,COc1cc(Cl)c(S(=O)(=O)N2CCOCC2)cc1Cl,"inconclusive: 3.98 µM [inhibitor, single point]"
6,CC(=O)c1cccc(NC(=O)C(C)OC(=O)CCC2CCCCC2)c1 (stereo not given),"inconclusive: 5.62 µM [inhibitor, full curve, poor fit]"
7,COc1ccc(Cc2noc(CN3CCCN(Cc4ccc(F)cc4)CC3)n2)cc1OC,inactive
8,COc1ccc(CNC(=O)CSCc2nc(-c3ccccc3F)oc2C)cc1,"inconclusive: 14.1 µM [inhibitor, single point]"
9,CCc1ccc(-c2nc(CN3CCC(C(=O)NCCc4ccc(C)cc4)CC3)c(C)o2)cc1,"inconclusive: 6.31 µM [inhibitor, single point]"
10,CCc1ccc(C2=CC(c3cccc(C)c3)n3c(nc4ccccc43)N2)cc1 (stereo not given),"inconclusive: 15.8 µM [inhibitor, single point]"
11,Cc1cccc(N(CC(=O)NCc2ccccc2)S(C)(=O)=O)c1C,inactive
12,COc1ccccc1OC(C)C(=O)N(Cc1ccco1)C1CCS(=O)(=O)C1 (stereo not given),"inconclusive: 35.5 µM [inhibitor, single point]"
13,CC(=O)n1cc(C(C[N+](=O)[O-])SCCN)c2ccccc21 (stereo not given),"inconclusive: 35.5 µM [inhibitor, single point]"
14,COc1cc(NC(=O)c2cc3cccc(OC)c3o2)cc(C(=O)Nc2cccc(C(F)(F)F)c2)c1,"inconclusive: 12.6 µM [inhibitor, single point]"
15,Cc1cc(C)cc(-n2nnnc2SCC(=O)Nc2cccc(NC(=O)c3ccco3)c2)c1,inactive
16,COCOCCn1cc(CN2CCS(=O)(=O)N(Cc3ccc(-c4ccc(Cl)c(Cl)c4)cc3)C(C)C2=O)nn1 (stereo not given),"inconclusive: 35.5 µM [inhibitor, single point]"
17,O=C(NC1CCCC1)c1ccc(CSc2nc3cccnc3n2Cc2cccc(F)c2)cc1,"inconclusive: 17.8 µM [inhibitor, partial curve, poor fit]"
18,OC[C@@H]1CN(CCN2CCOCC2)C[C@H](n2cnc3c(NC4CCCC4)ncnc32)O1,inactive
19,Oc1ccc(C[C@@H]2CNCCN2CCC23CC4CC(CC(C4)C2)C3)cc1,"inconclusive: 15.8 µM [inhibitor, partial curve, poor fit]"
20,Cc1c(C(=O)NCc2cccc([N+](=O)[O-])c2)sc(=O)n1Cc1ccc(C(C)C)cc1,"inconclusive: 31.6 µM [inhibitor, single point]"
21,CC(C)Cn1c(N)c(C(=O)NCC2CCCO2)c2nc3ccccc3nc21 (stereo not given),"inconclusive: 15.8 µM [inhibitor, single point]"
